Measured values published in PMC4336329 (PLoS ONE, 2015).
About 2,200 (0.71%) of roughly 310,000 compounds showed an effect of 50% or more. The effect is printed as a negative number. This is one part of the list.

Biological target: human ether-à-go-go-related gene (hERG) potassium channel (human, UniProt Q12809)
Assay: primary screen, population patch clamp on CHO cells stably expressing hERG

Sequence of human ether-à-go-go-related gene (hERG) potassium channel (Q12809 whole entry, looked up): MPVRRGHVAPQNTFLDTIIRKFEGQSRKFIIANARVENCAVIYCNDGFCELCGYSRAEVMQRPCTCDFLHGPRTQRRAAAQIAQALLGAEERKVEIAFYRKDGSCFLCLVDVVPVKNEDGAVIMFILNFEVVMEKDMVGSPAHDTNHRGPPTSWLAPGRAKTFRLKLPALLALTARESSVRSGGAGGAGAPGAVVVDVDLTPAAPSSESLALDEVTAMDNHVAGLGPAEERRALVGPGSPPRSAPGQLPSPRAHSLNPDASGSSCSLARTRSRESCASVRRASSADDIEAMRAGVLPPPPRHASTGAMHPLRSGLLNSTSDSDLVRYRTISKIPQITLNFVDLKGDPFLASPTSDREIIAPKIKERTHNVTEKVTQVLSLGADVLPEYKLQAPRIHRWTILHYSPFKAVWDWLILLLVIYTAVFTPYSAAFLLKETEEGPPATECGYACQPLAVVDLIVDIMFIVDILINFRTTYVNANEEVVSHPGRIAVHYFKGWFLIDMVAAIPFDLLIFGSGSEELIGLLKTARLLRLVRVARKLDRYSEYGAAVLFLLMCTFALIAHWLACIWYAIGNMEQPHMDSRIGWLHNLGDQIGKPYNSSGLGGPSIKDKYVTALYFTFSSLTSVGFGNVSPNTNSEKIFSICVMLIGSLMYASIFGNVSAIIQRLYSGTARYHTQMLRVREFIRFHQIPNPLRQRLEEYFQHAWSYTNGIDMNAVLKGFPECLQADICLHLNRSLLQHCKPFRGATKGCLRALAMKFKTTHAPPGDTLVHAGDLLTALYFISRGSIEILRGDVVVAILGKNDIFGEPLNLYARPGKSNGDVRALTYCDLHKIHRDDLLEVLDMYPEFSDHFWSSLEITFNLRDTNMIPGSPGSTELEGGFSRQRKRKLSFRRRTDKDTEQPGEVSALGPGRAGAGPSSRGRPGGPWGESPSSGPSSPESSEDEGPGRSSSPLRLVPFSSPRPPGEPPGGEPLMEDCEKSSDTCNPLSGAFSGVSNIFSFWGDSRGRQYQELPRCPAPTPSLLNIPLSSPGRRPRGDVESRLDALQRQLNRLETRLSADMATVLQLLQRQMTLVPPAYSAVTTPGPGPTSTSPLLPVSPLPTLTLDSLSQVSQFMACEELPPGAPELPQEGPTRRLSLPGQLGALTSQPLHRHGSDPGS

Row | Structure (SMILES) | hERG current change (%, negative = inhibition) at 1uM [%]
1 | CCOC(=O)N1CCN(c2ncnc3c2[nH]c2ccc(F)cc23)CC1 | 15.7
2 | CC(=O)N1CCN(S(=O)(=O)c2cccc(C(=O)NCCc3ccc(Cl)cc3)c2)CC1 | 7.17
3 | COc1ccccc1N1CCN(C(=O)c2cccc3c(=O)c(C)c(-c4ccccc4)oc23)CC1 | 2.64
4 | Cc1cccc(NC(=O)CSc2ccc(-c3cccnc3)nn2)c1 | 8.67
5 | CC(=O)NC1=NN(C(C)=O)C2(CCCCC2)S1 | 5.14
6 | COc1cc(NC(=S)N2CCC(C(N)=O)CC2)c(OC)cc1Cl | 14.5
7 | C=CCn1c(SCC(=C)C)nc2c1c(=O)[nH]c(=O)n2C | -10.3
8 | COc1cc(/C=C/C(=O)N2CCN(CC(O)COc3ccccc3)CC2)cc(OC)c1OC.Cl (stereo not shown) | 1.32
9 | Cc1cccc(Nc2nnc(SCC(=O)Nc3ccccc3[N+](=O)[O-])s2)c1C | 10.6
10 | ClCC1CSC(=NC23CC4CC(CC(C4)C2)C3)O1 (stereo not shown) | 11.5
11 | O=C(CN1C(=O)COc2ccc(Cl)cc21)Nc1nccs1 | 1.62
12 | NS(=O)(=O)c1ccc(NC(=O)CN2CCc3ccccc3C2)cc1 | 9.33
13 | O=C(c1ccc(Cl)c(S(=O)(=O)N2CCCCC2)c1)N1CCN(Cc2ccccc2)CC1 | -7.55
14 | O=C(CCNC(=O)c1ccccc1Cl)NCCc1ccc(C(F)(F)F)cc1 | 13
15 | OCCCc1nc2n(n1)C(c1cccs1)C=C(c1ccccc1)N2 (stereo not shown) | 7.28
16 | CC1CCCCN1c1ncnc2ccccc12.Cl (stereo not shown) | 3.54
17 | O=C(NCc1ccccc1F)c1ccc(S(=O)(=O)Nc2cccc(C(F)(F)F)c2)cc1 | 10.4
18 | CCCN1C(=O)C(NC(=O)c2ccncc2)(C(F)(F)F)C2=C1CC(C)(C)CC2=O (stereo not shown) | 9.78
19 | Fc1cccc(Cc2noc(CN3CCSCC3)n2)c1 | 17.3
20 | COc1ccccc1C(=O)Nc1ccc(S(=O)(=O)Nc2onc(C)c2C)cc1 | 3.87
21 | Cn1c(-c2nonc2N)nc2ccccc21 | 11.5
22 | CCCCOC(=O)C1=C(C)NC2(O)c3ccccc3C(=O)C12O (stereo not shown) | 14
23 | COc1ccc(N2CCN(C3CCCN(Cc4ccccc4OCCO)C3)CC2)cc1 (stereo not shown) | 8.36

Row | Structure (SMILES) | hERG current change (%, negative = inhibition) at 1uM [%]
24 | CC(=O)N1CCN(c2ccc(NCc3ccc(Br)o3)cc2)CC1 | 6.43
25 | Cc1ccc(CN(C)C(=O)c2ccccc2NC(=O)c2ccccc2)o1 | 7.82
26 | CCOc1ccc(-n2c(-c3ccco3)n[nH]c2=S)cc1 | 14
27 | Cc1cc(OCCN2CCN(S(=O)(=O)c3ccccc3F)CC2)ccc1C(C)C | 7.51
28 | CN(C(=O)Nc1ccccc1)C1CCS(=O)(=O)C1 (stereo not shown) | -1.61
29 | COc1ccc(C(=O)NCCNc2nc3c(C)cccc3cc2C#N)cc1OC | 8.9
30 | O=S(=O)(CCN1CCCCC1)Oc1ccc(Cl)cc1Cl | 7.85
31 | COc1ccc(NC(=O)CN(C)C(=O)c2cc(C3CC3)nn2-c2ccccc2)cc1 | 4.02
32 | CCOC(=O)c1cnc(-n2cc(C)cn2)nc1Nc1ccccc1OC | -4.51
33 | CCCCn1c(-c2nonc2N)nc2ccccc21 | 16
34 | O=C(/C=C/c1ccc(Cl)cc1Cl)NCc1ccco1 | -1.75
35 | Cc1ccc(NC(=O)/C(=C/c2ccncc2)NC(=O)c2ccccc2)cc1 | -0.321
36 | O=C(Nc1nnc(SCC(=O)N2CCCCC2)s1)c1c(F)cccc1F | 11.5
37 | O=C(CC(c1ccccc1O)N1CCCCC1)N1CCCCC1 (stereo not shown) | 3.08
38 | CN1C(=O)NC(c2ccccc2)C2=C1CN(c1cccc(C(F)(F)F)c1)C2=O (stereo not shown) | 2.03
39 | CCOC(=O)N1CCN(C(=O)CSc2ccc(-c3ccc(OC)c(OC)c3)nn2)CC1 | 0.431
40 | Cc1c(Cl)cccc1NC(=S)Nn1cnnc1 | 10.2
41 | C=CCn1c(SCC(=O)Nc2sccc2C#N)nc2sc(C)c(C)c2c1=O | 11.5
42 | COc1cc(OC)cc(-c2nc(N)n[nH]2)c1 | 0.707
43 | CCc1noc(C)c1C(=O)Nc1ccc(F)c(F)c1F | 11.7
44 | Cc1cc(C(=O)COc2ccc(C#N)cc2)c(C)n1C1CC1 | 0.682
45 | Cc1ccc2nc(/C(C#N)=C\c3ccc(OC(=O)c4cccs4)cc3)[nH]c2c1 | 1.95
46 | O=C(/C=C/c1cccc2ccccc12)N1CCOCC1 | 3.33
